In the supplement of paper PMC4604168 (melanoma cell lines):
The list shows a part of the results. Most values come without repeats; read them as rough.

System: WM3526
Assay: cell count relative to DMSO control; melanoma cells; higher = more viable cells
Settings: library dose: standard library concentration; 72 h
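Further: cells treated in 1,536-well plates, then fixed and DAPI-stained, with nuclei counted from automated high-throughput microscope images.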

SMILES | cell count [%]
O=C(O)c1ccc(-c2c[nH]c3ncc(-c4ccccc4)cc23)cc1C1CCCC1 + COc1ccc2c(c1)CCC1C2CCC2(C)C(NCCCCCCN3C(=O)C=CC3=O)CCC12 [U73122] (first compound 0.8 µM, partner dose 2 µM) | 87.6
C[C@@H]1CCN(C(=O)CC#N)C[C@@H]1N(C)c1ncnc2[nH]ccc12 + O=C(O)C(=O)Nc1sc2c(c1C(=O)O)CCNC2 [TCS401] (first compound 5 µM, partner dose 8.33333 µM) | 83.5
C[C@@H]1CCN(C(=O)CC#N)C[C@@H]1N(C)c1ncnc2[nH]ccc12 + CCCCCCCCCCCC1=C(O)C(=O)C=C(O)C1=O [Embelin] (first compound 5 µM, partner dose 6 µM) | 101
O=C(Nc1cccc(Cl)c1)Nc1ncc(CCNc2ncnc3ccsc23)s1 + COc1ccc(COc2ccc(Cc3cnc(N)nc3N)cc2OC)cc1 [GW2580] (first compound 0.004 µM, partner dose 5 µM) | 63
COc1cc(Nc2ncc(F)c(Nc3ccc4c(n3)NC(=O)C(C)(C)O4)n2)cc(OC)c1OC [Tamatinib] + COc1ccc2c(c1)CCC1C2CCC2(C)C(NCCCCCCN3C(=O)C=CC3=O)CCC12 [U73122] (first compound 2 µM, partner dose 2 µM) | 74
C[C@@H]1CCN(C(=O)CC#N)C[C@@H]1N(C)c1ncnc2[nH]ccc12 + O=C(Nc1ccccc1)c1cc([N+](=O)[O-])ccc1Cl [GW9662] (first compound 5 µM, partner dose 10 µM) | 96.5
C[C@@H]1CCN(C(=O)CC#N)C[C@@H]1N(C)c1ncnc2[nH]ccc12 + CC(C)CCN1c2nc(Nc3cc(F)c(O)c(F)c3)ncc2N(C)C(=O)C1C [BID1870] (first compound 5 µM, partner dose 1 µM) | 71.4
O=C(O)c1ccc(-c2c[nH]c3ncc(-c4ccccc4)cc23)cc1C1CCCC1 + Oc1cc(-c2nc(-c3ccccc3)[nH]c2-c2ccncc2)ccc1Cl [L779450] (first compound 0.8 µM, partner dose 1 µM) | 45.5
Cn1cncc1[C@@](N)(c1ccc(Cl)cc1)c1ccc2c(c1)c(-c1cccc(Cl)c1)cc(=O)n2C [tipifarnib] + O=S(=O)(c1ccccc1)N(CC(F)(F)F)c1ccc(C(O)(C(F)(F)F)C(F)(F)F)cc1 [T0901317] (first compound 0.05 µM, partner dose 7 µM) | 60.4
CC1(C)NC(=O)N(c2ccc([N+](=O)[O-])c(C(F)(F)F)c2)C1=O [nilutamide] + O=S(=O)(c1ccccc1)N(CC(F)(F)F)c1ccc(C(O)(C(F)(F)F)C(F)(F)F)cc1 [T0901317] (first compound 5 µM, partner dose 7 µM) | 78.7
O=C(Nc1cccc(Cl)c1)Nc1ncc(CCNc2ncnc3ccsc23)s1 + COc1ccc(-c2ccc3c(N4CCOCC4)nc(N4C[C@@H](C)O[C@@H](C)C4)nc3n2)cc1CO [KU0063794] (first compound 0.004 µM, partner dose 0.1 µM) | 58.9
CC1(C)NC(=O)N(c2ccc([N+](=O)[O-])c(C(F)(F)F)c2)C1=O [nilutamide] + CCCCCCCCCCCC1=C(O)C(=O)C=C(O)C1=O [Embelin] (first compound 5 µM, partner dose 6 µM) | 86.4
COc1cc(Nc2ncc(F)c(Nc3ccc4c(n3)NC(=O)C(C)(C)O4)n2)cc(OC)c1OC [Tamatinib] + COc1cc(N2CCC(N3CCN(C)CC3)CC2)ccc1Nc1ncc(Cl)c(Nc2ccccc2S(=O)(=O)C(C)C)n1 [NVP-TAE684] (first compound 2 µM, partner dose 0.4 µM) | 54.8
COc1cc(Nc2ncc(F)c(Nc3ccc4c(n3)NC(=O)C(C)(C)O4)n2)cc(OC)c1OC [Tamatinib] + Cc1cc([N+](=O)[O-])ccc1NS(=O)(=O)c1cc(Cl)ccc1Cl [FH535] (first compound 2 µM, partner dose 5 µM) | 52
CC1(C)NC(=O)N(c2ccc([N+](=O)[O-])c(C(F)(F)F)c2)C1=O [nilutamide] + COc1ccc(-c2ccc3c(N4CCOCC4)nc(N4C[C@@H](C)O[C@@H](C)C4)nc3n2)cc1CO [KU0063794] (first compound 5 µM, partner dose 0.1 µM) | 89.1
O=C(O)c1ccc(-c2c[nH]c3ncc(-c4ccccc4)cc23)cc1C1CCCC1 + COc1cc(N2CCC(N3CCN(C)CC3)CC2)ccc1Nc1ncc(Cl)c(Nc2ccccc2S(=O)(=O)C(C)C)n1 [NVP-TAE684] (first compound 0.8 µM, partner dose 0.4 µM) | 71.6
Cn1cncc1[C@@](N)(c1ccc(Cl)cc1)c1ccc2c(c1)c(-c1cccc(Cl)c1)cc(=O)n2C [tipifarnib] + CCCCCCCCCCCC1=C(O)C(=O)C=C(O)C1=O [Embelin] (first compound 0.05 µM, partner dose 6 µM) | 76
CC1(C)NC(=O)N(c2ccc([N+](=O)[O-])c(C(F)(F)F)c2)C1=O [nilutamide] + CCN(CC)CCCCNc1ncc2cc(-c3cc(OC)cc(OC)c3)c(NC(=O)NC(C)(C)C)nc2n1 [PD173074] (first compound 5 µM, partner dose 0.5 µM) | 88.4
C[C@@H]1CCN(C(=O)CC#N)C[C@@H]1N(C)c1ncnc2[nH]ccc12 + CCc1ccc(CCOc2ccc(CC3SC(=O)NC3=O)cc2)nc1 [pioglitazone] (first compound 5 µM, partner dose 10 µM) | 95.5
Cn1cncc1[C@@](N)(c1ccc(Cl)cc1)c1ccc2c(c1)c(-c1cccc(Cl)c1)cc(=O)n2C [tipifarnib] + Oc1cc(-c2nc(-c3ccccc3)[nH]c2-c2ccncc2)ccc1Cl [L779450] (first compound 0.05 µM, partner dose 1 µM) | 52.8
Cn1cncc1[C@@](N)(c1ccc(Cl)cc1)c1ccc2c(c1)c(-c1cccc(Cl)c1)cc(=O)n2C [tipifarnib] + COc1ccc(-c2ccc3c(N4CCOCC4)nc(N4C[C@@H](C)O[C@@H](C)C4)nc3n2)cc1CO [KU0063794] (first compound 0.05 µM, partner dose 0.1 µM) | 71
Cn1cncc1[C@@](N)(c1ccc(Cl)cc1)c1ccc2c(c1)c(-c1cccc(Cl)c1)cc(=O)n2C [tipifarnib] + CCN(CC)CCCCNc1ncc2cc(-c3cc(OC)cc(OC)c3)c(NC(=O)NC(C)(C)C)nc2n1 [PD173074] (first compound 0.05 µM, partner dose 0.5 µM) | 74.4
C[C@@H]1CCN(C(=O)CC#N)C[C@@H]1N(C)c1ncnc2[nH]ccc12 + Oc1nc(-c2ccc(C(F)(F)F)cc2)nc2c1CSCC2 [XAV939] (first compound 5 µM, partner dose 10 µM) | 92.4
O=C(Nc1cccc(Cl)c1)Nc1ncc(CCNc2ncnc3ccsc23)s1 + CCCCCCCCCCCC1=C(O)C(=O)C=C(O)C1=O [Embelin] (first compound 0.004 µM, partner dose 6 µM) | 77.4
COc1cc(Nc2ncc(F)c(Nc3ccc4c(n3)NC(=O)C(C)(C)O4)n2)cc(OC)c1OC [Tamatinib] + O=C(Nc1ccccc1)c1cc([N+](=O)[O-])ccc1Cl [GW9662] (first compound 2 µM, partner dose 10 µM) | 78.1
Cn1cncc1[C@@](N)(c1ccc(Cl)cc1)c1ccc2c(c1)c(-c1cccc(Cl)c1)cc(=O)n2C [tipifarnib] + N#Cc1c(O)c2c(-c3ccc(-c4ccccc4O)cc3)csc2[nH]c1=O [A769662] (first compound 0.05 µM, partner dose 10 µM) | 99.7
O=C(Nc1cccc(Cl)c1)Nc1ncc(CCNc2ncnc3ccsc23)s1 + COc1cc(N2CCC(N3CCN(C)CC3)CC2)ccc1Nc1ncc(Cl)c(Nc2ccccc2S(=O)(=O)C(C)C)n1 [NVP-TAE684] (first compound 0.004 µM, partner dose 0.4 µM) | 77.5
